# According to the supplement of paper PMC8728848:
# The list shows a part of the results.
# B1: MpL2 (Macrolepiota procera) (protein)
# chain: MSTQVSSGQTYKITNVKAGTVIDLSGEDNKSIIGYPYHSGKNQQWTFNWTGKAWTLRSASSGSYLGIEGTPADGTRLVAVNDPFEWHIWRDEANENAFRIFVPFTNYNLRLSGYGDTTPGTPVQLWWTWEGLHQTWTIDRP
# How the values were obtained:
# Assay in all cases: glycan array binding signal (z-score within array); higher = stronger binding
# Conditions in all cases: glycan notation: IUPAC condensed, linker removed; mutation: D109R
# [1] = molecular target: GlcNAc(b1-4)GlcNAc(b1-4)GlcNAc(b1-4)GlcNAc(b1-4)GlcNAc
# Outline: (§1)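 Negative Z-scores can be read as non-binding. The Z-score is calculated within each array and then averaged across arrays of one protein sequence at different concentrations or buffers and across linkers. Arrays, 3228 in all, were curated from the Consortium for Functional Glycomics database and kept only where the protein sequence was available.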
# [2] = molecular target: GlcNAc(b1-4)GlcNAc(b1-4)GlcNAc(b1-4)GlcNAc(b1-4)GlcNAc(b1-4)GlcNAc
# Outline: as §1
# [3] = molecular target: GlcNAc(b1-4)[GlcNAc(b1-6)]GalNAc
# Outline: as §1
# [4] = molecular target: GlcNAc(b1-6)Gal(b1-4)GlcNAc
# Outline: as §1
# GlcNAc(b1-6)GalNAc = molecular target: GlcNAc(b1-6)GalNAc
# Outline: as §1
# [5] = molecular target: GlcNAc6S(b1-3)Gal(b1-4)GlcNAc
# Outline: as §1
# Kdn(a2-3)Gal(b1-3)GalNAc = molecular target: Kdn(a2-3)Gal(b1-3)GalNAc
# Outline: as §1
# Kdn(a2-3)Gal(b1-3)GlcNAc = molecular target: Kdn(a2-3)Gal(b1-3)GlcNAc
# Outline: as §1
# Kdn(a2-3)Gal(b1-4)Glc = molecular target: Kdn(a2-3)Gal(b1-4)Glc
# Outline: as §1
# Kdn(a2-3)Gal(b1-4)GlcNAc = molecular target: Kdn(a2-3)Gal(b1-4)GlcNAc
# Outline: as §1
# [6] = molecular target: Kdn(a2-3)Gal(b1-4)[Fuc(a1-3)]GlcNAc
# Outline: as §1
# Kdn(a2-6)Gal(b1-4)GlcNAc = molecular target: Kdn(a2-6)Gal(b1-4)GlcNAc
# Outline: as §1
# [7] = molecular target: Man(a1-2)Man(a1-2)Man(a1-3)Man
# Outline: as §1
# [8] = molecular target: Man(a1-2)Man(a1-2)Man(a1-6)[Man(a1-3)]Man
# Outline: as §1
# Man(a1-2)Man(a1-3)Man = molecular target: Man(a1-2)Man(a1-3)Man
# Outline: as §1
# [9] = molecular target: Man(a1-2)Man(a1-3)[Man(a1-2)Man(a1-6)]Man
# Outline: as §1
# [10] = molecular target: Man(a1-2)Man(a1-3)[Man(a1-2)Man(a1-6)]Man(a1-6)[Man(a1-2)Man(a1-2)Man(a1-3)]Man
# Outline: as §1
# [11] = molecular target: Man(a1-2)Man(a1-3)[Man(a1-2)Man(a1-6)]Man(a1-6)[Man(a1-2)Man(a1-2)Man(a1-3)]Man(b1-4)GlcNAc(b1-4)GlcNAc
# Outline: as §1
# [12] = molecular target: Man(a1-2)Man(a1-3)[Man(a1-6)]Man(a1-6)[Man(a1-2)Man(a1-3)]Man(b1-4)GlcNAc(b1-4)GlcNAc
# Outline: as §1
# [13] = molecular target: Man(a1-2)Man(a1-6)[Man(a1-3)]Man(a1-6)[Man(a1-2)Man(a1-2)Man(a1-3)]Man
# Outline: as §1
# [14] = molecular target: Man(a1-2)Man(a1-6)[Man(a1-3)]Man(a1-6)[Man(a1-2)Man(a1-2)Man(a1-3)]Man(b1-4)GlcNAc(b1-4)GlcNAc
# Outline: as §1
# Man(a1-3)[Man(a1-6)]Man = molecular target: Man(a1-3)[Man(a1-6)]Man
# Outline: as §1
# [15] = molecular target: Man(a1-3)[Man(a1-6)]Man(a1-6)[Man(a1-2)Man(a1-3)]Man(b1-4)GlcNAc(b1-4)GlcNAc
# Outline: as §1
# [16] = molecular target: Man(a1-3)[Man(a1-6)]Man(a1-6)[Man(a1-3)]Man
# Outline: as §1
# [17] = molecular target: Man(a1-3)[Man(a1-6)]Man(a1-6)[Man(a1-3)]Man(b1-4)GlcNAc(b1-4)GlcNAc
# Outline: as §1
# [18] = molecular target: Man(a1-3)[Man(a1-6)]Man(b1-4)GlcNAc(b1-4)GlcNAc
# Outline: as §1
# [19] = molecular target: Man(a1-3)[Man(a1-6)]Man(b1-4)GlcNAc(b1-4)[Fuc(a1-6)]GlcNAc
# Outline: as §1
# Man(a1-6)Man = molecular target: Man(a1-6)Man
# Outline: as §1
# Man(b1-4)GlcNAc = molecular target: Man(b1-4)GlcNAc
# Outline: as §1
# MurNAc(b1-4)GlcNAc = molecular target: MurNAc(b1-4)GlcNAc
# Outline: as §1
# Neu5Ac(a2-3)Gal = molecular target: Neu5Ac(a2-3)Gal
# Outline: as §1
# [20] = molecular target: Neu5Ac(a2-3)Gal(b1-3)GalNAc
# Outline: as §1
# [21] = molecular target: Neu5Ac(a2-3)Gal(b1-3)GalNAc(b1-3)Gal(a1-4)Gal(b1-4)Glc
# Outline: as §1
# [22] = molecular target: Neu5Ac(a2-3)Gal(b1-3)GalNAc(b1-4)Gal(b1-4)Glc
# Outline: as §1
# [23] = molecular target: Neu5Ac(a2-3)Gal(b1-3)GalNAc(b1-4)[Neu5Ac(a2-3)]Gal(b1-4)Glc
# Outline: as §1
# [24] = molecular target: Neu5Ac(a2-3)Gal(b1-3)GalNAc(b1-4)[Neu5Ac(a2-8)Neu5Ac(a2-3)]Gal(b1-4)Glc
# Outline: as §1
# [25] = molecular target: Neu5Ac(a2-3)Gal(b1-3)GalNAc6S
# Outline: as §1
# [26] = molecular target: Neu5Ac(a2-3)Gal(b1-3)GlcNAc
# Outline: as §1
# [27] = molecular target: Neu5Ac(a2-3)Gal(b1-3)GlcNAc(b1-2)Man
# Outline: as §1
# [28] = molecular target: Neu5Ac(a2-3)Gal(b1-3)GlcNAc(b1-2)Man(a1-3)[GlcNAc(b1-4)][Neu5Ac(a2-3)Gal(b1-3)GlcNAc(b1-2)Man(a1-6)]Man(b1-4)GlcNAc(b1-4)GlcNAc
# Outline: as §1
# [29] = molecular target: Neu5Ac(a2-3)Gal(b1-3)GlcNAc(b1-2)Man(a1-3)[Neu5Ac(a2-3)Gal(b1-3)GlcNAc(b1-2)Man(a1-6)]Man(b1-4)GlcNAc(b1-4)GlcNAc
# Outline: as §1
# [30] = molecular target: Neu5Ac(a2-3)Gal(b1-3)GlcNAc(b1-2)[Neu5Ac(a2-3)Gal(b1-3)GlcNAc(b1-4)]Man(a1-6)[Neu5Ac(a2-3)Gal(b1-3)GlcNAc(b1-2)Man(a1-3)]Man(b1-4)GlcNAc(b1-4)GlcNAc
# Outline: as §1
# [31] = molecular target: Neu5Ac(a2-3)Gal(b1-3)GlcNAc(b1-3)Gal(b1-3)GlcNAc
# Outline: as §1
# [32] = molecular target: Neu5Ac(a2-3)Gal(b1-3)GlcNAc(b1-3)Gal(b1-4)GlcNAc
# Outline: as §1
# [33] = molecular target: Neu5Ac(a2-3)Gal(b1-3)GlcNAc(b1-3)GalNAc
# Outline: as §1
binder,measurement,setting,value
B1,glycan array binding signal (z-score),[1],-0.246
same,glycan array binding signal (z-score),[2],-0.258
same,glycan array binding signal (z-score),[3],-0.257
same,glycan array binding signal (z-score),[4],-0.168
same,glycan array binding signal (z-score),GlcNAc(b1-6)GalNAc,-0.256
same,glycan array binding signal (z-score),[5],0.055
same,glycan array binding signal (z-score),Kdn(a2-3)Gal(b1-3)GalNAc,-0.22
same,glycan array binding signal (z-score),Kdn(a2-3)Gal(b1-3)GlcNAc,-0.256
same,glycan array binding signal (z-score),Kdn(a2-3)Gal(b1-4)Glc,-0.267
same,glycan array binding signal (z-score),Kdn(a2-3)Gal(b1-4)GlcNAc,-0.245
same,glycan array binding signal (z-score),[6],-0.238
same,glycan array binding signal (z-score),Kdn(a2-6)Gal(b1-4)GlcNAc,-0.25
same,glycan array binding signal (z-score),[7],-0.249
same,glycan array binding signal (z-score),[8],-0.244
same,glycan array binding signal (z-score),Man(a1-2)Man(a1-3)Man,-0.278
same,glycan array binding signal (z-score),[9],-0.3
same,glycan array binding signal (z-score),[10],-0.258
same,glycan array binding signal (z-score),[11],-0.207
same,glycan array binding signal (z-score),[12],-0.274
same,glycan array binding signal (z-score),[13],-0.295
same,glycan array binding signal (z-score),[14],-0.217
same,glycan array binding signal (z-score),Man(a1-3)[Man(a1-6)]Man,-0.237
same,glycan array binding signal (z-score),[15],-0.071
same,glycan array binding signal (z-score),[16],-0.246
same,glycan array binding signal (z-score),[17],-0.249
same,glycan array binding signal (z-score),[18],-0.243
same,glycan array binding signal (z-score),[19],-0.24
same,glycan array binding signal (z-score),Man(a1-6)Man,-0.247
same,glycan array binding signal (z-score),Man(b1-4)GlcNAc,-0.226
same,glycan array binding signal (z-score),MurNAc(b1-4)GlcNAc,-0.259
same,glycan array binding signal (z-score),Neu5Ac(a2-3)Gal,-0.278
same,glycan array binding signal (z-score),[20],-0.251
same,glycan array binding signal (z-score),[21],-0.241
same,glycan array binding signal (z-score),[22],-0.282
same,glycan array binding signal (z-score),[23],-0.262
same,glycan array binding signal (z-score),[24],-0.266
same,glycan array binding signal (z-score),[25],-0.263
same,glycan array binding signal (z-score),[26],-0.244
same,glycan array binding signal (z-score),[27],-0.263
same,glycan array binding signal (z-score),[28],-0.232
same,glycan array binding signal (z-score),[29],0.006
same,glycan array binding signal (z-score),[30],-0.253
same,glycan array binding signal (z-score),[31],-0.277
same,glycan array binding signal (z-score),[32],-0.264
same,glycan array binding signal (z-score),[33],-0.259
